# Laboratory results taken from the RNAGym collection of RNA variant scans (doi:10.7554/elife.90254).
# The source gives no read counts; variants with many changes may rest on few reads.
# B1: LINE1-full (parent)
# chain: UACGUAGGUGGUUUUCCCCUGAUAGUGCUAAGGGGGCCUGGAAGUUUGGACUGGGCAGAGCUCAACACAGCGUGGCAAAGUGGCUGUGGCUAGACUGCCUCUCUGGAUUCCUCGUCACUCAGCAGGGCAUCUCUGAGAGAAAUGCC
# Variants of: B1
# Test: self-cleavage, relative activity (ratio to wild type); higher = more cleavage; in vitro, sequencing; the parent is a self-cleaving ribozyme
row,Variant,self-cleavage
1,A59U U73A G127U,0.86
2,A6G A129U A141G,0
3,U1C U13C A136G,0.65
4,U52C U85C A92G,0
5,G11A A22G A24G A79G C95U,0.3
6,A57G U119C A141G,1.67
7,A6U U87C A129G,0.45
8,U23A A31G G33A U87C U115C,0
9,A67U U91C U104C,0
10,U52A A129U U132A,1.61
11,U9C U62C A107G A124G A140G,0.4
12,U112C A124C A140G A141U,0.5
13,U14C A43U U62A G70A U104C,0
14,U45C U81A U104C U130C,1.02
15,G34A A92G A117U,0.06
16,U15C U29C U45C G72A,1.01
17,A30U A31G C38G,0.9
18,U13G U47C G53A U132A,0.84
19,A6U A43G G49A C68U A69G A124G,0.11
20,A59G A69U U112C,0.08
21,U9C G53U A64U U143C,0.61
22,U39A A42G U119A A138G,1.4
23,A2G U13C C131A,1.04
24,A2G C16U G33A U46C G54C A59G A141G,0.17

row,Variant,self-cleavage
1,U13A U47C A57G U73C U134A,0
2,A24G U73C U91C,1.84
3,U47A U134C A141G,1.87
4,C3U A77U A117U A141G,1.25
5,A64C A129G A136G,0.5
6,U5A A140G A141C,0.83
7,A69G U81A A142G,0.22
8,A94U U96C U112C,0
9,G27A A94G C111U A138G A140U A142G,0
10,U52G C71A U109C,0.35
11,A50G A121U A138G,0.61
12,A43U A64U A69G,0.28
13,U12C C28U G53U U87A U132C,0
14,U46A A57G A78G U104C,2.03
15,U9A U81A U132C,1.89
16,U14C A50U U112C,0.83
17,A6C U14C U112C,0.66
18,U26C C38A A124U,0.82
19,U15C A30G U47C U96C,0.57
20,U15C A43G A64G U73A A140G,0
21,U29C U115A A142G,0.57
22,A79G U100C A129C,0.38
23,U47G A59G U87C U96A,0
24,U73G G82A A92G,0.06

row,Variant,self-cleavage
1,U29C U47A A77G U102C,1.31
2,C37U A77G U109C,1.89
3,A67U U73G U132C,0.07
4,U9C A94G U102C,0.38
5,U14G A94G A141G,0.27
6,U5C G32A A69U U104A U108C A124G,0.19
7,A69U C71U U102C U112C,0.02
8,U15C C123U A142G,1.82
9,U26A U39C U102C,0.59
10,U5G A42G A79G,1.31
11,U1C U12A G40A A79G,0.4
12,U12G A69U A107G,0
13,U13A A94G U104A,0.43
14,A2G U52A A64G U85C A138G U143C,0
15,U47A A50U A57U C101A A141G,0.09
16,U9A A22U U134C,1.07
17,C61U U85A A141G,0.04
18,A78U U87G U112C U119C U143A,0.14
19,U45A A50C U52A A121G,0
20,U12C A117U A124U,1.44
21,G58U U62C A124G U132C,0.03
22,U102C A107G U132C,1.13
23,U39C A57G U81G U87C A141C,0
24,U9C U20A A79G G89C U115C,0

row,Variant,self-cleavage
1,C95U A107G A138G,0.36
2,U14C A43G U108C A124G,0
3,U45C U47C A138G,1.02
4,U12G A107G C110U A117G,1.24
5,U13C A79G A140G,1.16
6,A2G U46A U52G G83A,0.56
7,C68A A78G U87C,0.06
8,U62G U96C A129G,0
9,U13A A57G A124G,0.24
10,U26G C120A U132C,1.82
11,U20C U23C G27A A69U,0.05
12,U39C A117C A129G,1.84
13,U47C U112C A121U,2.07
14,A69U U91C G106A C116U A140C,0
15,U20A C56A U132C,0.03
16,A64C A141G U143A,0.09
17,A6U U62C A136G,0
18,U39A A78G A92G U100C,1.23
19,A50G U73A A79G,0.47
20,A50G G114A U115C,1.07
21,A30G U39C G54A U87C A117G,0
22,U45C U96C A124U,0.38
23,U1C U100C U104C,0
24,U1C U5C A6G,0.49

row,Variant,self-cleavage
1,A50G C76U A142G,1.18
2,A22G A64U A121U,0.51
3,A43U A65G U134C,0.11
4,A57G C113A U132A A136U,0.95
5,U5A C37U U73A,1.05
6,A42U A69G A92G A124U A140U,0
7,U87A U130A U132C A140G,0
8,A65U C99U A138G,0.2
9,G35A A94G A117G U130C,0
10,U12G U20C A67G U96C C99U,1.02
11,A2U G44A U119C,1.53
12,U39C C71G U96C U104A,0.12
13,C37U G74A A124G G135A,1.18
14,U12G U81C A107G,1.84
15,A69G A107U G127A A136C,0.23
16,U14C A57G A77G U85C,1.53
17,C19G U20G A59G G86A A141U,0.21
18,A43G U132C A142G,1.05
19,U13C U15C U85A,0.12
20,A6G U14C U46C U102C U119A U143C,0.84
21,U39A U62C U130C U143C,0
22,A2G U46C U52A U115A C123U U130C,1.67
23,U13C U26A A57U U62C A78U U108A A136G,0.16
24,U39A U45C A57U U108C U119C,0.44

row,Variant,self-cleavage
1,A77U A78G U96C A107U,0.04
2,C71U A94U U108A,0.17
3,U15A U81C C113U U115C,0.33
4,A69U U73A C128A C146U,0
5,C17G U115A A124G,0.54
6,A22G U47A U85C A129G,0.63
7,U26A G126A A142G,1
8,A30U U81C U85C A92U A136U U143C,0.24
9,U14C A65G U96A,0.11
10,U29C G55A A79G U81C U85C,0.14
11,U13C U14C U45C A78U U87A A129U G139A,0.22
12,U12C U47A U91C U134A,0.67
13,G33A U45C A141G,1.2
14,A30G A79G U132C,1.15
15,U15A U20C G41A U100C U104A,1.86
16,A43G U87A C90U U134A A140G,0
17,C98U A136G A140G,0.67
18,U14C U87C A121U,0.48
19,G32A C131U U134C,0.96
20,U9C U108C U130C,2.3
21,U12A A43G A124G,1.59
22,U12A A65G A79G A136G,0.12
23,U15A U23C U62A G88A A117G A142G,0
24,C38A U62A C120U,0.04

row,Variant,self-cleavage
1,C17U U52A C61U A92G U115A A140G,0.03
2,A69U A78G A141G,0.02
3,U96C U100C G139U,0
4,G11U A50G A64U A77G U102C,0.93
5,G58A C90G A124G A142U,0.04
6,U52A U62C A94C C133A,0
7,A42G A67U A124U,0.16
8,U39A U45C C63U C76U C98A A141G,0.08
9,U20C U81G U109C A142G,0.82
10,U52A U115C A124G A138G,1.31
11,U29C A67C A140G,0
12,U26C C63U U132C,0.57
13,G7A G44A U130C,1.13
14,U15A U23A U62C,0.06
15,U15C A22G U26C U39A U47A C98U,0.45
16,A31G G36U A43U,0.86
17,G36A U102C A140G,1.35
18,A59G U96A U112C A124G,0
19,A31U A65G A124U,0.06
20,U20A C37U G89U A92G,0.03
21,U46A U91A U112A,0.42
22,C56U A129G U130C,0.34
23,A43G U45A G137U,1.06
